We go through 44 sequences from the supplement of paper PMC11417369.

Some of the results follow.

For the assay, the system named is PfSIP2 AP2 domain 1 (GST-tagged). Nature of the assay: gcPBM binding intensity (ln(normalized median fluorescence intensity)); higher = stronger DNA binding. The essentials:
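Binding intensity is defined as the maximum Masliner-normalised natural-log median intensity across replicate spots for either probe orientation. It was measured on an Agilent 4 × 180k array of primer-extended double-stranded 36-bp intergenic genomic probes and negative controls, to which GST-tagged P. falciparum DNA-binding domains made in E. coli were applied for 1 h in 1× PBS with 1% milk, 0.2 mg/ml BSA, 0.5% salmon testes DNA and 0.03% Triton X-100. Detection was by Alexa488 anti-GST antibody and scanning at 488 nm.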
Regarding “ATATATTTTTTAAACACACACATAAATATTTGTGTA [CACACA_site2879]”, the “gcPBM binding intensity (ln)” value came out at 7.08.
As for “ATATATATATATATATGTACATATTTTAATAATTAA [XGTACX_site8549]”, the “gcPBM binding intensity (ln)” value is 9.52.
As for “CGCGCACACGGACACACACACACACGGATATAAATA [CACACA_site7102]”, the “gcPBM binding intensity (ln)” value is 7.46.
For “TGTTGTTACATATATACACACATATATATATTATAT [CACACA_site2397]”, the “gcPBM binding intensity (ln)” value is 7.23.
As for “TAATATAGTATAGTATGTACATATAATTAGAATATT [XGTACX_site4053]”, the “gcPBM binding intensity (ln)” value was 7.29.
In the case of “TGGTATATATTTCCTTGTACATATAATATATATTGT [XGTACX_site3961]”, the “gcPBM binding intensity (ln)” value came out at 7.17.
In the case of “TATTAAAGGGGTTTCACACACATGTATAATTAATTT [CACACA_site200]”, the “gcPBM binding intensity (ln)” value amounted to 6.83.
Take “AACCATATTTAGATTACACACAGTTTAAATATTTTA [CACACA_site6712]”: the “gcPBM binding intensity (ln)” value amounted to 6.84.
“AATATGAACAGACACACACACACAAAAAAAAAAAAA [CACACA_site2012]”: the “gcPBM binding intensity (ln)” value is 7.19.
The same measure for “AATTTGTTATGTATATGTACATAAATAGATATATGA [XGTACX_site3930]”: 7.1.
The same measure for “TCTTGACGAAGTAGAAGGATATATATATAAAAAAAA [CACACA_negctrl_site641]”: 6.85; for “TCCAGGTATTTATTCTGTACACATAAAACATTTTAT [XGTACX_site8472]”: 6.99.
With “TCGTCTCTTCTTGTTCTGTTTTAGAAGGCTATATAT [CACACA_negctrl_site180]”, the “gcPBM binding intensity (ln)” value stood at 7.17.
Regarding “AGGAGGTCAGTTCACAGTACCCAGAAAACTCTACGA [XGTACX_site1992]”, the “gcPBM binding intensity (ln)” value was 6.55.
On to “CAAAACCTACATAACATACACACGCATATATAGAAT [CACACA_site2846]”, for which the “gcPBM binding intensity (ln)” value was 7.04.
In the case of “TTCTTATCAAGAGAAAGTACATAAAAAATTAATAAG [XGTACX_site1821]”, the “gcPBM binding intensity (ln)” value worked out at 7.16.
With “CATGCAATATTAAACACACACTCATATAGCACAATA [CACACA_site6182]”, the “gcPBM binding intensity (ln)” value came out at 7.24.
The value for “CCAACAAAAATAAGCACACACAAATATACATACATA [CACACA_site3606]” was 6.99; that for “ACAGTATCTGGTAGCTGTACGGATTGTAGAGAGTAG [XGTACX_site4872]” was 7.71.
Turning to “AGAATAATAAAATGGGTGCAATAGTTTTTTTTTTTT [GTGCAC_site9823]”, the “gcPBM binding intensity (ln)” value was determined as 10.4.
In the case of “TTGGATTTTCCATAATGTACACATAAAAGTGTTACA [XGTACX_site4544]”, the “gcPBM binding intensity (ln)” value worked out at 6.99.
As for “TTTTAAAAAATATAATATAATATAATATAAAATAAA [CACACA_negctrl_site154]”, the “gcPBM binding intensity (ln)” value amounted to 6.83.
Turning to “TATACCTATAGACACACACACATATAGATTTATATA [CACACA_site7124]”, the “gcPBM binding intensity (ln)” value was determined as 7.1.
Consider “CGCATACACAGACACACACACACATATAAATATGTA [CACACA_site6444]”, for which the “gcPBM binding intensity (ln)” value was 7.47.
On to “AATTTTTTATTAAACACACAAACATATATATATATA [CACACA_site1937]”, for which the “gcPBM binding intensity (ln)” value worked out at 9.
“GTTCATACTTAATATTGTACTTTTCATGTAGTGTAT [XGTACX_site6613]”: the “gcPBM binding intensity (ln)” value worked out at 7.05.
With “AAATAAATATTTATATGTACATATATTTTATAATAC [XGTACX_site7041]”, the “gcPBM binding intensity (ln)” value amounted to 7.34.
As for “TAACATATTTTTAATACACACTCAAAAAAGTACTTA [CACACA_site5638]”, the “gcPBM binding intensity (ln)” value was 6.96.
The value for “TACAAATATATATGCACACACATATACATACATATA [CACACA_site2182]” was 7.31.
The same measure for “TATTAGATATAATATATACACACCAACGAACGAAGA [CACACA_site1134]”: 7.58; for TTATATAATTTAATAGTGCAATTATATTAATTTTTC: 7.73; for “ATATATATATGTTACTGTACTAATTTATATGTTAAT [XGTACX_site3341]”: 9.11.
The same measure for “AATACAAATATATACACACATACATACATACATATA [CACACA_site3147]”: 7.14.
On to “TAGATATATAATTTGCGTACACAAATAATATATTTT [XGTACX_site6397]”, for which the “gcPBM binding intensity (ln)” value was found to be 6.99.
As for “TAGTTTTCTTAAAGATGTACATTTTAAAAATAATCT [XGTACX_site255]”, the “gcPBM binding intensity (ln)” value is 7.
The same measure for “CACAAAAATAGACACACACACATATAGATTTATTAT [CACACA_site7676]”: 6.99.
Take “TTATGGTTTAAATAAAGTACAAATAAATAAATATAT [XGTACX_site5777]”: the “gcPBM binding intensity (ln)” value was determined as 7.17.
The value for “ATACACATATGTTAATGTACACATATATAATATTTA [XGTACX_site163]” was 7.18; that for “TTATGAAAAATAAAATTAGAAAAAAAGGAAAATGAA [XGTACX_negctrl_site232]” was 6.96.
As to “TTTCTTAAATATATTGAGGAATAAAAAGAAGAAAAG [GTGCAC_negctrl_site281]”, the “gcPBM binding intensity (ln)” value was determined as 7.09.
As to “AGGTTACATAGATTTTGTACATATATATTATTTTTT [XGTACX_site3040]”, the “gcPBM binding intensity (ln)” value is 6.91.
Consider “AAAAAATTATAAAAGTGTACATATATATATATATAT [XGTACX_site154]”, for which the “gcPBM binding intensity (ln)” value amounted to 9.3.
Consider “CATATTTCTTTATTGGCACACATTTTTTCAATTATA [CACACA_site1618]”, for which the “gcPBM binding intensity (ln)” value was found to be 7.19.
Consider “AAAAAAAAAAAAAACACACACAAATTTAATCTATAT [CACACA_site6894]”, for which the “gcPBM binding intensity (ln)” value is 7.14.
